Measurements published in article PMC4361618, “Nab3 Facilitates the Function of the TRAMP Complex in RNA Processing via Recruitment of Rrp6 Independent of Nrd1” (PLoS Genetics, 2015).
Changes are numbered by the printed parent chain. In names and notes the source's numbering stands. Results are given in words; binding and its absence hold for the method and conditions named. Binding seen in cells or lysates may run through a third protein. Some results given as binding are weak or reduced against the parent protein; the word gives no strength. Sequences can lack the tags named with a protein. Each block holds one binder with its values, some of them ahead of it.

What was measured:
[1] = molecular target: T1, TAP-tagged Rrp6 (S. cerevisiae) (UniProt Q12149); assay: co-IP; TAP-tagged Rrp6 precipitated on IgG Sepharose beads from lysates of RRP6-TAP yeast cells expressing Myc-tagged Nab3 proteins; IPP100 buffer (100 mM NaCl), overnight at 4°C; absence of RNase A; anti-Myc immunoblot
T1 sequence: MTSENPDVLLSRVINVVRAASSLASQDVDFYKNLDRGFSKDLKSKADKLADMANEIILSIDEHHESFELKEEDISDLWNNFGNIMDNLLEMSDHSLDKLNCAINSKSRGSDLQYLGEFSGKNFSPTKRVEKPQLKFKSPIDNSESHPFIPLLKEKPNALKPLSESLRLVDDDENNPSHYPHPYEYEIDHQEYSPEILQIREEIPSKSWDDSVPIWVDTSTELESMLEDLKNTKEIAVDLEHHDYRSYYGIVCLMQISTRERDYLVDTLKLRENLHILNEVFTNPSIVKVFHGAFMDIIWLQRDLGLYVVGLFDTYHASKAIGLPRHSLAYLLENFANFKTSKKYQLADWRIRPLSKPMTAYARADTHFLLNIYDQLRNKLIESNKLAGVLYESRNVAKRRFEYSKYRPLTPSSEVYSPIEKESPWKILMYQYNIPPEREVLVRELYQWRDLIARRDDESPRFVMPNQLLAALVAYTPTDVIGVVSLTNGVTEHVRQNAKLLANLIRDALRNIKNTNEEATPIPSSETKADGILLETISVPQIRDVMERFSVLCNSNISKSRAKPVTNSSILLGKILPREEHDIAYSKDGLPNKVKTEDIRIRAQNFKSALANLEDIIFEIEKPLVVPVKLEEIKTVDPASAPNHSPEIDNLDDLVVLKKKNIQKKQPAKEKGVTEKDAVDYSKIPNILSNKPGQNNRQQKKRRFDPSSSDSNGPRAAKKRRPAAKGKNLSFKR

[2] = molecular target: T2, TAP-tagged Dis3 (S. cerevisiae) (UniProt Q08162); assay: co-IP; TAP-tagged Dis3 precipitated on IgG Sepharose beads from lysates of DIS3-TAP yeast cells expressing Myc-tagged Nab3 proteins; IPP150 buffer, overnight at 4°C; anti-Myc immunoblot
T2 sequence: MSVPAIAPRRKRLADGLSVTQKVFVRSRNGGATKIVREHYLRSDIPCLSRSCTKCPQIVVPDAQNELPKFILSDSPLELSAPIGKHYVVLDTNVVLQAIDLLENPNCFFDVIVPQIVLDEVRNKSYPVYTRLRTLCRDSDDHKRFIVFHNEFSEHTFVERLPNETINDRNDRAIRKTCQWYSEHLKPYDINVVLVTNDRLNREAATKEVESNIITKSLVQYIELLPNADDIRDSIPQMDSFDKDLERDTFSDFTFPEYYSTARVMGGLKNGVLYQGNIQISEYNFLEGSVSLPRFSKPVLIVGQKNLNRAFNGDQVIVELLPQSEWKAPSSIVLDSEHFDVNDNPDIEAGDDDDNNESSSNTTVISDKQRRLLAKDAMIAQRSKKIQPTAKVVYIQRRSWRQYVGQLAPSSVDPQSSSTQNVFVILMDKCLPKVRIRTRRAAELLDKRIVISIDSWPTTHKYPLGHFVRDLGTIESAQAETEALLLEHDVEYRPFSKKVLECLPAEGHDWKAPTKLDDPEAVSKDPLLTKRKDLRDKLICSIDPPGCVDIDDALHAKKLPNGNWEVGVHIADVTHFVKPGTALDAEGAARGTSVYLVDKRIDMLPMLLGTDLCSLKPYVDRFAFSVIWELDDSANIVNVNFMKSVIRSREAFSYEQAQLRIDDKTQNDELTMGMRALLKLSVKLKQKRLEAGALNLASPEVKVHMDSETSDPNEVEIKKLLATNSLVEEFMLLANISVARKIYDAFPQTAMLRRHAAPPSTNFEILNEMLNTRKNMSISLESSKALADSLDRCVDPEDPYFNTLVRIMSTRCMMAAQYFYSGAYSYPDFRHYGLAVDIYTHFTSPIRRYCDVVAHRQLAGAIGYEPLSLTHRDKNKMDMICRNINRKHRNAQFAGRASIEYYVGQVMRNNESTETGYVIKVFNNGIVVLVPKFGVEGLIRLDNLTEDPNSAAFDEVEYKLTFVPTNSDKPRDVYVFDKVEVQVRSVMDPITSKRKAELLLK

[3] = molecular target: T1, TAP-tagged Rrp6 (S. cerevisiae); assay: co-IP; TAP-tagged Rrp6 precipitated on IgG Sepharose beads from lysates of RRP6-TAP yeast cells expressing Myc-tagged Nab3 proteins; IPP100 buffer (100 mM NaCl), overnight at 4°C; presence of RNase A (5 μl of 20 mg/ml); anti-Myc immunoblot
TAP-tagged Nrd1 = molecular target: T3, TAP-tagged Nrd1 (S. cerevisiae, UniProt P53617 1-575); assay: co-IP; TAP-tagged Nrd1 precipitated on IgG Sepharose beads from lysates of NRD1-TAP yeast cells expressing Myc-tagged Nab3 proteins; IPP150 buffer (10 mM Tris-HCl pH 8, 150 mM NaCl, 0.1% NP-40), overnight at 4°C; anti-Myc immunoblot; % bound relative to input and to bound wild-type Nab3
T3 construct: also called Nrd1-TAP; source: S. cerevisiae NRD1-TAP strain (ACY2293; Thermo Scientific Open Biosystems), in lysate
T3 sequence (looked up): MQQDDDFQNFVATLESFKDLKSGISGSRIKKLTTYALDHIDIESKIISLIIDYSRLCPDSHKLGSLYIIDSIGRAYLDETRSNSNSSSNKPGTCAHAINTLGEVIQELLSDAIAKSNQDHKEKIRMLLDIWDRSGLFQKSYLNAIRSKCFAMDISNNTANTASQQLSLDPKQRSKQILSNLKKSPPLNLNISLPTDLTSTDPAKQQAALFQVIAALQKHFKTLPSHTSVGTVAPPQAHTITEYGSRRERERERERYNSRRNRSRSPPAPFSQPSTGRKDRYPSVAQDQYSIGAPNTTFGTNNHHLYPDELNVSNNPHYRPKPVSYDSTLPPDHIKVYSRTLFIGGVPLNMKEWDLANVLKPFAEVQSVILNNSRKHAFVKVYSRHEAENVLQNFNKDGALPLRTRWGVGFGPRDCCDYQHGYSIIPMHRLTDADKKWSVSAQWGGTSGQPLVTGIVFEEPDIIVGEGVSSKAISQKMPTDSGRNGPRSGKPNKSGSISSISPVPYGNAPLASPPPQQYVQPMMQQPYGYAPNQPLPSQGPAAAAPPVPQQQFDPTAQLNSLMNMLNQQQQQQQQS

B2: Myc-tagged Nab3 (protein, UniProt P38996 1-802)
chain: MSDENHNSDVQDIPSPELSVDSNSNENELMNNSSADDGIEFDAPEEEREAEREEENEEQHELEDVNDEEEEDKEEKGEENGEVINTEEEEEEEHQQKGGNDDDDDDNEEEEEEEEDDDDDDDDDDDDEEEEEEEEEEGNDNSSVGSDSAAEDGEDEEDKKDKTKDKEVELRRETLEKEQKDVDEAIKKITREENDNTHFPTNMENVNYDLLQKQVKYIMDSNMLNLPQFQHLPQEEKMSAILAMLNSNSDTALSVPPHDSTISTTASASATSGARSNDQRKPPLSDAQRRMRFPRADLSKPITEEEHDRYAAYLHGENKITEMHNIPPKSRLFIGNLPLKNVSKEDLFRIFSPYGHIMQINIKNAFGFIQFDNPQSVRDAIECESQEMNFGKKLILEVSSSNARPQFDHGDHGTNSSSTFISSAKRPFQTESGDMYNDDNGAGYKKSRRHTVSCNIFVKRTADRTYAIEVFNRFRDGTGLETDMIFLKPRMELGKLINDAAYNGVWGVVLVNKTHNVDVQTFYKGSQGETKFDEYISISADDAVAIFNNIKNNRNNSRPTDYRAMSHQQNIYGAPPLPVPNGPAVGPPPQTNYYQGYSMPPPQQQQQQPYGNYGMPPPSHDQGYGSQPPIPMNQSYGRYQTSIPPPPPQQQIPQGYGRYQAGPPPQPPSQTPMDQQQLLSAIQNLPPNVVSNLLSMAQQQQQQPHAQQQLVGLIQSMQGQAPQQQQQQLGGYSSMNSSSPPPMSTNYNGQNISAKPSAPPMSHQPPPPQQQQQQQQQQQQQQQQPAGNNVQSLLDSLAKLQK
binding (TAP-tagged Nrd1): binds
binding [1]: binds
binding [2]: binds
binding [3]: binds

B3: Myc-tagged nab3-11 RRM mutant (F371L-P374L) (protein, UniProt P38996 1-802)
chain: B2 chain with F371L, P374L
binding (TAP-tagged Nrd1): binds

B5: Myc-tagged nab3-R331A RRM mutant (protein, UniProt P38996 1-802)
chain: B2 chain with R331A
binding (TAP-tagged Nrd1): binds

The next lines start with the values.

binding [1]: binds
binding [2]: no binding
binding [3]: binds
B1: Myc-tagged nab3-ΔNBD mutant (Δ204–248) (natural protein, S. cerevisiae, UniProt P38996 1-802, looked up)
chain: MSDENHNSDVQDIPSPELSVDSNSNENELMNNSSADDGIEFDAPEEEREAEREEENEEQHELEDVNDEEEEDKEEKGEENGEVINTEEEEEEEHQQKGGNDDDDDDNEEEEEEEEDDDDDDDDDDDDEEEEEEEEEEGNDNSSVGSDSAAEDGEDEEDKKDKTKDKEVELRRETLEKEQKDVDEAIKKITREENDNTHFPTNMSDTALSVPPHDSTISTTASASATSGARSNDQRKPPLSDAQRRMRFPRADLSKPITEEEHDRYAAYLHGENKITEMHNIPPKSRLFIGNLPLKNVSKEDLFRIFSPYGHIMQINIKNAFGFIQFDNPQSVRDAIECESQEMNFGKKLILEVSSSNARPQFDHGDHGTNSSSTFISSAKRPFQTESGDMYNDDNGAGYKKSRRHTVSCNIFVKRTADRTYAIEVFNRFRDGTGLETDMIFLKPRMELGKLINDAAYNGVWGVVLVNKTHNVDVQTFYKGSQGETKFDEYISISADDAVAIFNNIKNNRNNSRPTDYRAMSHQQNIYGAPPLPVPNGPAVGPPPQTNYYQGYSMPPPQQQQQQPYGNYGMPPPSHDQGYGSQPPIPMNQSYGRYQTSIPPPPPQQQIPQGYGRYQAGPPPQPPSQTPMDQQQLLSAIQNLPPNVVSNLLSMAQQQQQQPHAQQQLVGLIQSMQGQAPQQQQQQLGGYSSMNSSSPPPMSTNYNGQNISAKPSAPPMSHQPPPPQQQQQQQQQQQQQQQQPAGNNVQSLLDSLAKLQK
notes: also called nab3 NBD mutant; nab3-NBD; source: S. cerevisiae (NRD1-TAP, RRP6-TAP or DIS3-TAP cells), 2μ URA3 plasmid, in lysate; not shown: 2xMyc, C-terminal, kept

binding (TAP-tagged Nrd1): binds
B4: Myc-tagged nab3-S399A RRM mutant (protein, UniProt P38996 1-802)
chain: B2 chain with S399A
